# In the supplement of paper PMC3334620:
# Whole data set: some 33,000 sequences, median “E-score (-0.5 to 0.5)” near -0.016, cut for the highest 2% near 0.32. The list shows a part of the results.
# Target: T1, Stp1 (UniProt B3LFK1)
# T1 sequence: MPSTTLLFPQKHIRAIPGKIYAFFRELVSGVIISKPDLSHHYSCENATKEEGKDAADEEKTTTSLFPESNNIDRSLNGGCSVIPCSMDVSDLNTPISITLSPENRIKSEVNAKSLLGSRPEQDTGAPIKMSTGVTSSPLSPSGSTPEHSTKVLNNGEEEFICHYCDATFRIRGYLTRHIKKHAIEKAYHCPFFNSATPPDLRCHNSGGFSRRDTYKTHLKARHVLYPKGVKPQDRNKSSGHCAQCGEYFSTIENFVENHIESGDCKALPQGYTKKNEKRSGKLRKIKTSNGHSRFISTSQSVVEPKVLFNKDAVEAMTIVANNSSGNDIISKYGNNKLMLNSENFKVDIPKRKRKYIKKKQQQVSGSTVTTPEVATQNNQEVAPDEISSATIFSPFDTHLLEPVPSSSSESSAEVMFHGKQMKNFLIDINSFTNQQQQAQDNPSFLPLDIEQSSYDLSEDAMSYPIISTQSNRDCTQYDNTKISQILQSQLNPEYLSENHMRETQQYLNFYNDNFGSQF
# Assay: PBM E-score (8-mer binding enrichment) (E-score (-0.5 to 0.5)); higher = stronger / more preferred TF binding; most listed sequences are background and not binding sites
# Conditions: protein concentration: 200 nM; construct: GST-full length
# Outline: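 Yeast transcription factors, full-length or as DNA-binding domains, were expressed with a GST tag using PURExpress in vitro transcription/translation. At about 100-200 nM they were applied to universal all-10-mer Agilent arrays, double-stranded by primer extension on fresh or once-stripped slides. Fluorescent anti-GST detected bound protein, and masliner normalised the scans. E-scores for ungapped eight-base words, pooled with reverse complements, came from the Universal PBM Analysis Suite.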
row,Sequence,PBM E-score
1,GAGCCGTA,0.468
2,GCAATTCA,0.0517
3,CACCAATA,0.0685
4,CTGGGGTC,-0.344
5,AGGTATCG,0.0192
6,CGCTATTA,0.0923
7,CAAAGGAA,0.123
8,CATTTGGG,-0.0403
9,AAGTCTAT,-0.117
10,ACCGTCAC,-0.243
11,CTTAGGCA,-0.0386
12,AACGCTTA,-0.083
13,CGTTGTAG,-0.016
14,TATGCGAA,-0.0247
15,AAGAGGTA,-0.00795
16,GACATCTC,-0.152
17,GCCACTAC,-0.0571
18,AGCCCTGG,-0.241
19,GGCCCTCA,-0.276
20,ACGCATAA,0.162
21,ACACATTA,-0.0293
22,CCTTGCGA,0.0926
23,AGGGGGTA,-0.4
24,AGCTGGCA,-0.0867
25,AAACTGGC,-0.0924

row,Sequence,PBM E-score
1,ATCAGAAC,-0.063
2,ATACGGGG,0.0876
3,CTTTCGAC,-0.104
4,GCAACGGC,0.411
5,GGCACGTA,0.246
6,AGTCGGAG,-0.192
7,AACACACT,-0.0084
8,CCTAGCGC,-0.00646
9,CAACCGTC,-0.259
10,ACTTTCAC,0.0231
11,GCCTTCAA,-0.00288
12,ATATCGCC,0.322
13,AGTGCATG,-0.0175
14,TGACCCAA,-0.0481
15,CTCTAGTC,-0.279
16,ATATTGCA,-0.00326
17,TAGCCAAA,-0.0204
18,ATTATACC,0.148
19,GTCATACA,-0.0156
20,AAAGTACG,0.165
21,CGCAATTA,0.17
22,GTTTGATA,0.155
23,AATAGTAG,0.175
24,ACAAAGCT,0.0299
25,GTCGGCTA,-0.0709

row,Sequence,PBM E-score
1,GGATCGTA,0.0272
2,CCATTGAA,0.114
3,CTATCAGC,0.0102
4,ACACTCCA,-0.011
5,ATTACGTG,0.108
6,CGCTTACG,-0.167
7,GGATCTAA,-0.00936
8,CTAACCCC,-0.281
9,GAGGGATA,-0.298
10,CTCATGAC,-0.0816
11,AGACGGCG,0.463
12,AATCTGTG,0.154
13,AACTAGCG,0.0816
14,CCAAGCAG,0.0965
15,AACCAGTC,-0.0234
16,AGGCGTGG,-0.0393
17,ACACGTCA,-0.0247
18,ATTCCTCA,0.0196
19,CCGAAACA,0.178
20,AGCTGGAA,0.0236
21,CTTGACTA,-0.16
22,CCAAGACA,-0.137
23,CTCGCGAC,0.0888
24,TACGGGCA,0.115
25,ATAGATAG,-0.155

row,Sequence,PBM E-score
1,ACGCACAT,0.0704
2,AGTCTTTA,-0.129
3,AGTATCAT,0.149
4,CTTCTTAC,-0.172
5,GCCAATAA,0.12
6,AAAGCTGT,0.103
7,ACTATCGC,0.057
8,ACTAAGTC,-0.0456
9,CCCGGCCC,-0.416
10,TATAAAGA,-0.0524
11,CGTATTAA,0.162
12,ACCCTATG,-0.254
13,ACAGTCCG,-0.0579
14,GCGGGGCC,0.122
15,CAGCCCAC,-0.109
16,ACTCTCGA,-0.171
17,AGCTAGGG,-0.336
18,CAGGCTCC,-0.185
19,AACAAAAT,0.0791
20,AACCTACC,-0.294
21,AACCATCC,-0.128
22,AATGAACG,0.0312
23,AATACGAG,0.0155
24,CATAGTTC,0.00951
25,CGAACACC,-0.069

row,Sequence,PBM E-score
1,CTGGGGGA,-0.35
2,CAATGGGG,-0.00976
3,CCGCTCTA,0.106
4,AGGAGGAC,-0.267
5,CGGCATTA,0.436
6,ATTGGGCC,0.181
7,CCCAGCGG,-0.107
8,ATATAATC,0.0942
9,AACCACGG,0.0855
10,GCCTTCCC,0.0651
11,TCGTACGA,0.0984
12,GCATGGCC,-0.015
13,AGCGAACC,-0.121
14,ACGGTAGG,-0.212
15,AGGTCACT,-0.265
16,AGTGGAAC,-0.0597
17,CTGGGTAC,-0.0852
18,CAGGCTTA,-0.186
19,TAAACCTA,-0.0754
20,TCCGTAGA,0.0858
21,CGATAGCA,-0.222
22,ATGATCTA,0.0525
23,CTCATCAA,0.127
24,AGGGCGCC,0.343
25,CATACGGC,0.472

row,Sequence,PBM E-score
1,GATATAGA,0.0916
2,AAACCGTA,0.019
3,AATCATCC,-0.0602
4,ATTCGCTA,-0.0429
5,AGGCTAGA,-0.17
6,CTGTCTGC,-0.0925
7,CCTTCTAG,0.0336
8,ACCAGTAC,-0.105
9,CACGCACC,-0.0624
10,ACTAGGCT,0.0277
11,ACGGTTGG,-0.04
12,CTCAACCA,0.033
13,CGACCCCA,0.0203
14,AGTCGATG,-0.194
15,AAGCCAGT,-0.181
16,ATCGCTCG,0.0255
17,ACTACACT,-0.0657
18,ACGATAAC,-0.131
19,TTTATAAA,0.376
20,ACTGGAAC,-0.0147
21,AATCCCTG,-0.0247
22,ATGAGGTG,-0.0679
23,TGGACACA,-0.0894
24,GCAGGGTA,-0.191
25,GTGGCCAC,-0.0105

row,Sequence,PBM E-score
1,AGCGTTGA,-0.0269
2,GACGGTGC,-0.021
3,GAGGCAAA,0.239
4,AGGGAGGC,-0.121
5,ACTCGCGG,0.106
6,CGATGATC,-0.0137
7,ATGTCACG,0.0791
8,AAGACGAG,-0.0698
9,ATTATAAA,0.178
10,CCTAGCGA,-0.201
11,GAGGTTGA,-0.0562
12,CGGTTAAA,0.1
13,ACTGCATC,0.0192
14,GAGTACGC,-0.0795
15,GCAGAGAC,-0.185
16,TTGAGCAA,-0.0145
17,TACCGAGA,-0.114
18,CAGACCAC,-0.108
19,GACTCAGA,-0.0935
20,AATTTGAC,0.0587
21,AAGCCCCG,-0.0486
22,CGACAAAA,0.102
